Screen size: about 48,000 compounds; about 550 (1.1%) were called active. About 4% were inconclusive and are not listed. Cut-off read from the data, not from the text of the source: active = potency below about 15 µM; inconclusive = mostly about 16 µM to 33 µM; inactive = weaker than that. Some of the results follow.
target: Lysosomal acid glucosylceramidase (Homo sapiens) (UniProt P04062); test: Glucocerebrosidase; conditions: purified enzyme, resorufin glucoside fluorescence (screen aimed at inhibitors), 20 min;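 note: the screen sought inhibitors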
Method in brief: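 Wild-type enzyme at 0.2 nM final in 50mM citric acid/KH2PO4, 10mM sodium taurocholate, 0.01% tween-20, pH 5.9, with resorufin beta-D-glucopyranoside at 30 uM final. Compounds titrated, 20 min at RT, red fluorescence read; AC50 from titration.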
Potency is the fitted concentration of half-maximal effect.

Sequence of UniProt P04062 (P04062 whole entry, looked up): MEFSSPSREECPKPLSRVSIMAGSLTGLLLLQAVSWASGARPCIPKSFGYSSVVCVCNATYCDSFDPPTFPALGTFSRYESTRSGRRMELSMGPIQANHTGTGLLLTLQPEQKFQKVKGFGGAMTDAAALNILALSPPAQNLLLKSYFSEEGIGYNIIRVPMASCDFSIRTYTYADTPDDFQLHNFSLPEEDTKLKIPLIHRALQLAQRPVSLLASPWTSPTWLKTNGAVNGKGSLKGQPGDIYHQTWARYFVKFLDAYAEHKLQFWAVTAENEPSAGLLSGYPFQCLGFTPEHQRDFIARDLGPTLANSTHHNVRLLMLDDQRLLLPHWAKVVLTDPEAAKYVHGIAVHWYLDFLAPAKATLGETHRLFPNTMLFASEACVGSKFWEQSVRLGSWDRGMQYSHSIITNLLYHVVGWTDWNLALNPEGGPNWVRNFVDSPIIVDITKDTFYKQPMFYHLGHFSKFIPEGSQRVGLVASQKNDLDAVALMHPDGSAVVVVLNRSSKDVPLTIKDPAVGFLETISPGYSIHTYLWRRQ

Potency, inactive:
COc1cc(C(=O)Nc2c(-c3ccccn3)c(=O)c3ccccc3n2C)cc(OC)c1OC > 76.9 µM
Cc1ccc(S(=O)(=O)N2CCCC(C(=O)NCc3cccnc3)C2)cc1Cl (stereo not drawn) > 76.9 µM
O=C(CSc1nnc(-c2ccccc2)o1)N1CCc2ccccc2C1 > 76.9 µM
O=C1CSC(c2ccncc2)N1Cc1ccco1 (stereo not drawn) > 76.9 µM
O=C(c1ccccc1)N1CCN(C2CC3CCC2C3)CC1 (stereo not drawn) > 76.9 µM
CCOC(=O)N1CCC(NC(=O)c2cc(C(=O)NCc3cccc(Cl)c3)ccc2CO)CC1 > 76.9 µM
CCc1cc(C(=O)OC)c(NC(=O)c2cc(Br)cs2)s1 > 76.9 µM
CS(=O)(=O)N(CC(=O)N1CCN(c2cccc(Cl)c2)CC1)C1CCCCC1 > 76.9 µM
CN(C(=O)NC(=O)C1=C(N2CCOCC2)/C(=C/c2ccccc2)CC1)S(C)(=O)=O > 76.9 µM
CCCCOCCCn1cnc2c([nH]c3cc(OC)ccc32)c1=O > 76.9 µM
CCc1c(C)nc2c(C#N)c(C)[nH]n2c1=O > 76.9 µM
CCCCN(C)CCCNC(=O)C1CC(=O)N(Cc2ccc(OC)cc2)C1 (stereo not drawn) > 76.9 µM
COC(=O)c1cccc(S(=O)(=O)N2CCC(C)CC2)c1 > 76.9 µM
COc1ccc(S(=O)(=O)N2CCCC2)c(C)c1C > 76.9 µM
Nc1nonc1-c1noc(CCCN2C(=O)c3ccccc3C2=O)n1 > 76.9 µM
CCc1nnc(NS(=O)(=O)c2ccc(NC(=O)OC)cc2)s1 > 76.9 µM
CCCN1Cc2cccc(C(=O)NCc3ccc4c(c3)OCO4)c2C1=O > 76.9 µM
COc1ccc(CC(=O)Nc2c3c(nn2-c2cccc(Cl)c2)CS(=O)C3)cc1 (stereo not drawn) > 76.9 µM
CC(=O)Nc1cccc(OCC(O)Cn2cnc3ccccc32)c1 (stereo not drawn) > 76.9 µM
CCOC(=O)c1nnn(CC(=O)Nc2cccc(OC)c2)c1C(=O)OCC > 76.9 µM
Cc1cc2c(c(N)n1)c(=O)oc1ccccc12 > 76.9 µM
Cc1cc2cc(CN(Cc3ccco3)C(=O)C3CCCCC3)c(=O)[nH]c2cc1C > 76.9 µM
O=C1CCCN1CCC1CCN(C2CC(=O)N(c3ccc(F)cc3)C2=O)CC1 (stereo not drawn) > 76.9 µM
CNC(=O)CN(c1cccc2ccccc12)S(C)(=O)=O > 76.9 µM
CN(C)CCN1C(=O)C(O)=C(C(=O)c2ccco2)C1c1ccccc1F (stereo not drawn) > 76.9 µM
COc1ccccc1N1CCN(S(=O)(=O)c2cccc3nsnc23)CC1 > 76.9 µM
Cc1cc(Br)ccc1NC(=O)CCN1C(=O)c2ccncc2C1=O > 76.9 µM
CSc1nnc2c3c4c(sc3c(=O)n(-c3ccccc3)n12)CC(C)(C)OC4 > 76.9 µM
O=C(CCNC(=O)Cn1ccc2ccccc2c1=O)NCCN1CCN(c2ccccc2F)CC1 > 76.9 µM
COc1ccc(C(=O)Nn2cnc3scc(-c4cccs4)c3c2=O)c(O)c1 > 76.9 µM
COc1ccc(C2C(C(=O)N3CCCC3)c3cc(OC)c(OC)cc3C(=O)N2C)cc1 (stereo not drawn) > 76.9 µM
CC(Nc1cc(=O)n(C)c(=O)n1C)c1ccccc1 (stereo not drawn) > 76.9 µM
Cc1c(C(=O)NC(C)CN2CCCCC2)oc2ccccc12 (stereo not drawn) > 76.9 µM
Cc1cc(C)nc(SCNC(=O)c2ccc(F)cc2)n1 > 76.9 µM
COc1cc(NS(=O)(=O)c2ccccc2)ccc1-n1nc(C)cc1C > 76.9 µM
COCCN1CC(=O)N(c2cccc(C)c2C)C(c2ccc(Cl)cc2)C1=O (stereo not drawn) > 76.9 µM
Cc1ccc(SC(C)c2nc(-c3ccccc3)no2)cc1 (stereo not drawn) > 76.9 µM
CCOC(=O)C1=C(C)NC(=O)NC1c1ccc(OC)c(CN2CCOCC2)c1 (stereo not drawn) > 76.9 µM
COc1cccc2cc(-c3nnc(SCC(=O)Nc4nc(C)cs4)n3C)oc12 > 76.9 µM
CCCC(=O)Nc1ccc2c(c1)nc1n2CCOC1 > 76.9 µM
CCOC(=O)COc1ccc(S(=O)(=O)N2CCN(C(=O)OCC)CC2)cc1 > 76.9 µM
COc1cccc2c(=O)c3c(cnn3C)n(C)c12 > 76.9 µM
CCn1c(=O)cc(OCC(=O)Nc2cc(C)ccn2)c2ccccc21 > 76.9 µM
Cc1cccc(C)c1OCCCCc1c(C)n[nH]c1C > 76.9 µM
Cc1cc(=O)n2[nH]c(-c3ccccc3)cc2n1 > 76.9 µM
O=C(NCC1CCCO1)c1c(O)c2ccccc2[nH]c1=O (stereo not drawn) > 76.9 µM
Cn1c(=O)c2[nH]c(CNCc3ccccc3Cl)nc2n(C)c1=O > 76.9 µM
CCCc1n[nH]c(=O)[nH]1 > 76.9 µM
CC1CCCN(C(=O)Nc2cccc(NC(=O)N3CCCC(C)C3C)c2)C1C (stereo not drawn) > 76.9 µM
O=C(Nc1ccccc1)c1cccc(-c2nnc(-c3ccccc3)o2)c1 > 76.9 µM
CC(=O)N1CCN2C(=O)C1CCCC(=O)c1cc(C3CCCCC3)ccc12 (stereo not drawn) > 76.9 µM
CCn1c(SCC(=O)c2cc(OC)ccc2OC)nnc1C(C)C > 76.9 µM
CN1CCN(C(=O)CC23CC4CC(CC(C4)C2)C3)CC1 > 76.9 µM
OCc1nc(CO)n(Cc2ccccc2)n1 > 76.9 µM
O=C(O)Cc1ccc2[nH]c3ccc(CC(=O)O)cc3c2c1 > 76.9 µM
O=c1c2[nH]c3cccc(Cl)c3c2ncn1Cc1ccncc1 > 76.9 µM
Cc1cc(C)n2nc(SCC(=O)N(C)Cc3ccccc3)nc2n1 > 76.9 µM
O=C(CCCC(=O)N1CCN(c2ccccc2F)CC1)N1CCN(c2ccccc2F)CC1 > 76.9 µM
Cn1c(NCc2ccco2)nc2c1c(=O)n(Cc1ccc(Cl)cc1Cl)c(=O)n2C > 76.9 µM
CC(C)(C)n1nnnc1C(c1ccncc1)N1CCCCCC1 (stereo not drawn) > 76.9 µM
O=C1c2cccnc2C(Nc2ccc(S(=O)(=O)N3CCCCC3)cc2)N1Cc1ccccc1 (stereo not drawn) > 76.9 µM
COc1ccccc1NC(=O)CN1CCN(C2c3ccccc3-c3ccccc32)CC1 > 76.9 µM
COC(=O)C1=CN(CC2CCCO2)C=C(C(=O)OC)C1c1cc(OC)c(OC)c(OC)c1 (stereo not drawn) > 76.9 µM
O=C(NCc1ccc(F)cc1)C1CCN(S(=O)(=O)N2CCCCC2)CC1 > 76.9 µM
CCOC(=O)C1CCCN(C(=O)c2cn(CC)c3ccc(S(=O)(=O)N4CCCC4)cc3c2=O)C1 (stereo not drawn) > 76.9 µM
CCOc1ccccc1NC(=O)Cn1c(=O)n(CCC(=O)NC2CCCC2)c(=O)c2ccccc21 > 76.9 µM
Cc1ccc(-c2cc(-c3ccc(F)cc3)nc(N)c2C#N)o1 > 76.9 µM
O=C(CNC(=O)c1ccc(Cl)cc1Cl)NCC(=O)Nc1ccccc1N1CCOCC1 > 76.9 µM
COc1ccc(CC(=O)OCC(=O)Nc2ncc(Cl)cc2Cl)cc1 > 76.9 µM
O=C(OCC(=O)N1CCOCC1)C(c1ccccc1)c1ccccc1 > 76.9 µM
CCS(=O)(=O)N1CCCC(C(=O)NC2CCCCC2)C1 (stereo not drawn) > 76.9 µM
CCOC(=O)CN(C(=O)CSc1nnc(-c2ccc(OC)c(OC)c2)o1)c1ccccc1 > 76.9 µM
Cc1cc2ccccc2c(=O)n1CC(=O)NCC1COc2ccccc2O1 (stereo not drawn) > 76.9 µM
Cc1[nH]nc2c1C(c1ccc(OC(=O)c3ccco3)cc1)C(C#N)=C(N)O2 (stereo not drawn) > 76.9 µM
CCCCCCn1c(N2CCC(C(N)=O)CC2)nc2c1c(=O)[nH]c(=O)n2C > 76.9 µM
Cc1ccccc1-n1c(SCC(=O)N2CCCC2)nnc1-c1ccccn1 > 76.9 µM
COC(=O)C1(c2ccccc2)NC(c2cccs2)C2C(=O)N(C)C(=O)C21 (stereo not drawn) > 76.9 µM
Cc1cc(=O)[nH]c(SCC(=O)Nc2ccc(S(=O)(=O)N3CCCCC3)cc2)n1 > 76.9 µM
Cc1c(N=C2SCC(=O)N2c2c(C)n(C)n(-c3ccccc3)c2=O)c(=O)n(-c2ccccc2)n1C > 76.9 µM
COc1ccc(NC(=O)CSc2ccccn2)cc1OC > 76.9 µM
CCOC(=O)Cc1cn2c(=O)cc(CSCC(=O)Nc3ccc(C)c(C)c3)nc2s1 > 76.9 µM
CCOC(=O)N1CCC(NC(=O)c2ccc(OC)c(CN3CC(=O)N4CCCC4C3=O)c2)CC1 (stereo not drawn) > 76.9 µM
CCOc1ccccc1-n1c(SCC(=O)NC2CCCC2)nnc1-c1ccoc1C > 76.9 µM
COc1ccc(-c2nnc(SCC(=O)c3[nH]c(C)c(C(C)=O)c3C)o2)cc1 > 76.9 µM
CN1CCN(C(=O)c2ccccc2NC(=O)CCN2C(=O)c3ccccc3C2=O)CC1 > 76.9 µM
COc1cccc(NS(=O)(=O)c2ccc(S(=O)(=O)N3CCOCC3)cc2)c1 > 76.9 µM
O=C(NCCOc1nc(N2CCCCC2)nc(N2CCOCC2)n1)Nc1ccccc1 > 76.9 µM
O=C(Cc1ccccc1)NCCCN1CCN(CCCNC(=O)Cc2ccccc2)CC1 > 76.9 µM
